Assay results as given in patent publication US20250171549A1 (Amgen, published 2025).
Blank lines part the entries; values can stand above or below the binder they belong to. Where no end group is shown, it is not given here.

Assays:
Test in all cases: flow cytometry, construct on streptavidin beads, TCE 5 ug/mL
[1] = target: T1, P_7-18 construct (truncated N-terminal peptide of human CCR8 fused to V5 tag, chicken albumin, FLAG tag, BAP … (human, also: fused to V5 tag, chicken albumin, FLAG tag, BAP, H3G, biotinylated at BAP))
T1 construct: Expressed in HEK 293 cells, on streptavidin beads; not shown: same C-terminal fusion as P_1-35 construct (V5 tag, chicken albumin, FLAG tag, BAP, H3G with linkers)
T1 chain: LSVTTVTDYYYP

[2] = target: T2, P_13-24 construct (truncated N-terminal peptide of human CCR8 fused to V5 tag, chicken albumin, FLAG tag, BAP … (human, also: fused to V5 tag, chicken albumin, FLAG tag, BAP, H3G, biotinylated at BAP))
T2 construct: Expressed in HEK 293 cells, on streptavidin beads; not shown: same C-terminal fusion as P_1-35 construct (V5 tag, chicken albumin, FLAG tag, BAP, H3G with linkers)
T2 chain: TDYYYPDIFSSP

[3] = target: T3, P_1-12 construct (truncated N-terminal peptide of human CCR8 fused to V5 tag, chicken albumin, FLAG tag, BAP … (human, also: fused to V5 tag, chicken albumin, FLAG tag, BAP, H3G, biotinylated at BAP))
T3 construct: Expressed in HEK 293 cells, on streptavidin beads; not shown: same C-terminal fusion as P_1-35 construct (V5 tag, chicken albumin, FLAG tag, BAP, H3G with linkers)
T3 chain: MDYTLDLSVTTV

[4] = target: T4, P_25-35 construct (truncated N-terminal peptide of human CCR8 fused to V5 tag, chicken albumin, FLAG tag, BAP … (human, also: fused to V5 tag, chicken albumin, FLAG tag, BAP, H3G, biotinylated at BAP))
T4 construct: Expressed in HEK 293 cells, on streptavidin beads; not shown: same C-terminal fusion as P_1-35 construct (V5 tag, chicken albumin, FLAG tag, BAP, H3G with linkers)
T4 chain: CDAELIQTNGK

[5] = target: T5, P_1-35 construct (full-length N-terminal peptide of human CCR8 fused to V5 tag, chicken albumin, FLAG tag, … (human, biotinylated in vivo at BAP))
T5 construct: not shown: C-terminal fusion: G4S-linker, V5 tag, G4S-linker, chicken albumin, SG-linker, FLAG tag, SG-linker, BAP (biotin acceptor)

[6] = target: T6, P_19-30 construct (truncated N-terminal peptide of human CCR8 fused to V5 tag, chicken albumin, FLAG tag, BAP … (human, also: fused to V5 tag, chicken albumin, FLAG tag, BAP, H3G, biotinylated at BAP))
T6 construct: Expressed in HEK 293 cells, on streptavidin beads; not shown: same C-terminal fusion as P_1-35 construct (V5 tag, chicken albumin, FLAG tag, BAP, H3G with linkers)
T6 chain: DIFSSPCDAELI

Median Fluorescence of Sample/Median Fluorescence of Negative Control [1]: 1
Median Fluorescence of Sample/Median Fluorescence of Negative Control [2]: 1.1
Median Fluorescence of Sample/Median Fluorescence of Negative Control [3]: 414
Median Fluorescence of Sample/Median Fluorescence of Negative Control [4]: 1.1
Median Fluorescence of Sample/Median Fluorescence of Negative Control [5]: 471
Median Fluorescence of Sample/Median Fluorescence of Negative Control [6]: 1.1
B1: CCR8 TCE1 scFab × I2E × scFc (bispecific antibody)
chain: EVQLVESGGGLVKPGGSLRLSCAASGFTFSNARMGWVRQAPGKGLEWVGRIKSKTEGGTRDYAAPVKGRFTISRDDSKNTLYLQMNSLKTEDTAVYYCTSYSGVWGQGTMVTVSSASTKGPSVFPLAPSSKSTSGGTAALGCLVKDYFPEPVTVSWNSGALTSGVHTFPAVLQSSGLYSLSSVVTVPSSSLGTQTYICNVNHKPSNTKVDKKVEPKSCGGGGQGGGGQGGGGQGGGGQGGGGQGGGGQGGGGQGGGGQEIVMTQSPDSLAVSLGERATINCKSSQSVLYSSNNKNYLAWYHQKPGQSPKLLISWASTRESGVPDRFSGSGSGTDFTLTINSLQAEDVAVYYCQQYYSIPITFGGGTKVEIKRTVAAPSVFIFPPSDEQLKSGTASVVCLLNNFYPREAKVQWKVDNALQSGNSQESVTEQDSKDSTYSLSSTLTLSKADYEKHKVYACEVTHQGLSSPVTKSFNRGECSGGGGQEVQLVESGGGLVQPGGSLKLSCAASGFTFNKYAINWVRQAPGKGLEWVARIRSKYNNYATYYADAVKDRFTISRDDSKNTVYLQMNNLKTEDTAVYYCARAGNFGSSYISYWAYWGQGTLVTVSSGGGGQGGGGQGGGGQQTVVTQEPSLTVSPGGTVTIT[about 80 residues not given here]FGSGTKLTVLGGGGCPPCPAPELLGGPSVFLFPPKPKDTLMISRTPEVTCVVVDVSHEEPEVKFNWYVDGVEVHNAKTKPCEEQYGSTYRCVSVLTVLHQDWLNGKEYKCKVSNKALPAPIEKTISKAKGQPREPQVYTLPPSREEMTKNQVSLTCLVKGFYPSDIAVEWESNGQPENNYKTTPPVLDSDGSFFLYSKLTVDKSRWQQGNVFSCSVMHEALHNHYTQKSLSLSPGKGGGGQGGGGQGGGGQGGGGQGGGGQGGGGQCPPCPAPELLGGPSVFLFPPKPKDTLMISRTPEVTCVVVDVSHEEPEVKFNWYVDGVEVHNAKTKPCEEQYGSTYRCVSVLTVLHQDWLNGKEYKCKVSNKALPAPIEKTISKAKGQPREPQVYTLPPSREEMTKNQVSLTCLVKGFYPSDIAVEWESNGQPENNYKTTPPVLDSDGSFFLYSKLTVDKSRWQQGNVFSCSVMHEALHNHYTQKSLSLSPGK

Median Fluorescence of Sample/Median Fluorescence of Negative Control [1]: 1
Median Fluorescence of Sample/Median Fluorescence of Negative Control [2]: 432
Median Fluorescence of Sample/Median Fluorescence of Negative Control [3]: 1
Median Fluorescence of Sample/Median Fluorescence of Negative Control [4]: 1
Median Fluorescence of Sample/Median Fluorescence of Negative Control [5]: 814
Median Fluorescence of Sample/Median Fluorescence of Negative Control [6]: 1.1
B2: CCR8 TCE2 scFab × I2E × scFc (bispecific antibody)
chain: QVQLVESGGGVVQPGRSLRLSCAASGFTFSNYGMHWVRQAPGKGLEWVAVISYDGSNKFYADSVKGRFTISRDNSKKTLYLQMSSLRVEDTAVYYCARAGGIGRFDYWGQGTLVTVSSASTKGPSVFPLAPSSKSTSGGTAALGCLVKDYFPEPVTVSWNSGALTSGVHTFPAVLQSSGLYSLSSVVTVPSSSLGTQTYICNVNHKPSNTKVDKKVEPKSCGGGGQGGGGQGGGGQGGGGQGGGGQGGGGQGGGGQGGGGQDFVMTQTPLSLSVTPGQPASISCKYSQSLLHSDGKTYLFWYLQKPGQPPHLLIYEVSNRFSGVPDRFSGSGSGTDFTLKISRVEAEDVGLYYCMQTLKLPLTFGGGTKVEINRTVAAPSVFIFPPSDEQLKSGTASVVCLLNNFYPREAKVQWKVDNALQSGNSQESVTEQDSKDSTYSLSSTLTLSKADYEKHKVYACEVTHQGLSSPVTKSFNRGECSGGGGQEVQLVESGGGLVQPGGSLKLSCAASGFTFNKYAINWVRQAPGKGLEWVARIRSKYNNYATYYADAVKDRFTISRDDSKNTVYLQMNNLKTEDTAVYYCARAGNFGSSYISYWAYWGQGTLVTVSSGGGGQGGGGQGGGGQQTVVTQEPSLTVSPGGTVTIT[about 80 residues not given here]FGSGTKLTVLGGGGCPPCPAPELLGGPSVFLFPPKPKDTLMISRTPEVTCVVVDVSHEEPEVKFNWYVDGVEVHNAKTKPCEEQYGSTYRCVSVLTVLHQDWLNGKEYKCKVSNKALPAPIEKTISKAKGQPREPQVYTLPPSREEMTKNQVSLTCLVKGFYPSDIAVEWESNGQPENNYKTTPPVLDSDGSFFLYSKLTVDKSRWQQGNVFSCSVMHEALHNHYTQKSLSLSPGKGGGGQGGGGQGGGGQGGGGQGGGGQGGGGQCPPCPAPELLGGPSVFLFPPKPKDTLMISRTPEVTCVVVDVSHEEPEVKFNWYVDGVEVHNAKTKPCEEQYGSTYRCVSVLTVLHQDWLNGKEYKCKVSNKALPAPIEKTISKAKGQPREPQVYTLPPSREEMTKNQVSLTCLVKGFYPSDIAVEWESNGQPENNYKTTPPVLDSDGSFFLYSKLTVDKSRWQQGNVFSCSVMHEALHNHYTQKSLSLSPGK
